# Laboratory results published in PubChem BioAssay (NCATS).
# This list was built around the results that the source calls inconclusive (neither active nor inactive); the mix of calls is not that of the screen. A call without a number means that no potency is given here. For some assays here: Potencies of inconclusive entries are doubtful fits and often do not repeat. Active and inactive are the calls of the source. Calls come from the whole dose curve; as a rule, active = well fitted curve in the direction sought with a large enough effect; inconclusive = small, poorly fitted or top-dose-only effect, or another doubt; inactive = no such curve, though single readings can be large; an effect the other way counts as inactive or inconclusive.
# Key:
# [1] = tested on: CASKI; assay: Primary qHTS to identify gynecologic anti-cancer compounds using libraries of approved drugs and bioactive compounds (AID 1345084); settings: Gynecologic cancer cell panel viability, ATPlite luminescence, 48 h; series mostly up to 57.5 µM; note: nearly all actives have a fitted effect of over 55% in size; note: potency is the fitted concentration of half-maximal effect
# How it was run: (§1)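 Five-point cytotoxicity, 48 h drug exposure at 37 C, 5% CO2, on cells seeded 16 h beforehand. ATP content read by ATPlite luminescence.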
# [2] = tested on: OV90; assay: as above; settings: Gynecologic cancer cell panel viability, ATPlite luminescence, 48 h; series mostly up to 57.5 µM
# How it was run: as §1
# [3] = tested on: Es-2; assay: as above; settings: Gynecologic cancer cell panel viability, ATPlite luminescence, 48 h; series mostly up to 57.5 µM
# How it was run: as §1
# [4] = tested on: Hek293T; assay: as above; settings: Gynecologic cancer cell panel viability, ATPlite luminescence, 48 h, control line for the selectivity index; series mostly up to 57.5 µM
# How it was run: as §1
# [5] = tested on: JEG-3; assay: as above; settings: Gynecologic cancer cell panel viability, ATPlite luminescence, 48 h; series mostly up to 57.5 µM
# How it was run: as §1
# [6] = tested on: TAB165; assay: qHTS profiling for inhibitors of Plasmodium falciparum proliferation (AID 504749); note: nearly all actives have a fitted effect of over 60% in size; settings: P. falciparum in erythrocytes, SYBR Green DNA, 72 h; series mostly up to 28.7 µM
# How it was run: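 Fluorescence of SYBR Green-bound parasite DNA, read at 485/535 nm, served as the growth measure. Infected erythrocytes were cultured with compound 72 h; artemisinin (0.29 uM) and DMSO wells defined the normalization range.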
# Tags give direction and shape of the fitted curve.
smiles,measurement,setting,value
CCC1CN2CCC3(C(=O)Nc4cccc(O)c43)C2CC1/C(=C/OC)C(=O)OC (stereo not given),Potency,[1],inactive
same,Potency,[2],inactive
O=C(OC[C@H]1O[C@@H](Oc2ccc(O)cc2CO)[C@H](O)[C@@H](O)[C@@H]1O)c1ccccc1,Potency,[3],inactive
CC[C@H]1CN2CC[C@H]1C[C@@H]2[C@@H](O)c1ccnc2ccc(OC)cc12,Potency,[1],inactive
CC(=O)O[C@H]1C(=O)[C@]2(C)C(O)C[C@H]3OC[C@@]3(OC(C)=O)[C@H]2[C@H](OC(=O)c2ccccc2)[C@]2(O)C[C@H](O)C(C)=C1C2(C)C (stereo not given in full),Potency,[1],"inconclusive: 14.1 µM [cytotoxic, single point]"
same,Potency,[2],inactive
COc1cc(C)[nH]c(=O)c1CNC(=O)c1c(C)n([C@H](C)C2CCOCC2)c2ccccc12,Potency,[3],inactive
CC(=O)OC1CC(O)C(C)(C)C2CC(OC(C)=O)C3(C)C(CCC4(C)C(c5ccoc5)C(=O)C5OC543)C12C (stereo not given),Potency,[3],inactive
same,Potency,[4],inactive
CCCOC(=O)Cc1ccc(OCC(=O)N(CC)CC)c(OC)c1,Potency,[1],inactive
same,Potency,[2],inactive
O=C1CN2CCOC2(c2ccccc2Cl)c2cc(Cl)ccc2N1 (stereo not given),Potency,[1],inactive
C[C@@H](CN1CCC(n2c(=O)[nH]c3cc(Br)ccc32)CC1)NC(=O)[C@@H]1C[C@H]1c1ccccc1,Potency,[1],inactive
OCCCCC#Cc1cncc(OC[C@@H]2CCN2)c1,Potency,[3],inactive
CC[C@@H](CO)NC(=O)[C@@H]1C=C2c3cccc4[nH]cc(c34)C[C@H]2N(C)C1,Potency,[1],inactive
same,Potency,[5],"inconclusive: 25.1 µM [rising, single point]"
same,Potency,[2],inactive
CN1C(=O)COc2c(C(=O)NC3CN4CCC3CC4)cc(Cl)cc21 (stereo not given),Potency,[6],inactive
same,Potency,[3],inactive
same,Potency,[5],inactive
